We go through 55 compounds from PubChem BioAssay AID463173 (ICCB-Longwood Screening Facility, Harvard Medical School, 2010).

Each structure is given as a SMILES string. In all, about 52,000 compounds went through this assay and about 1,700 (3.3%) were called active. Rule as the data show it: active = survival mostly below about 52% (no sharp cut-off); inactive = mostly above about 56%. The list shows a part of the results.

The experiment concerns Wild type. The experiment is described as follows: growth inhibition of S. aureus wild type versus tarO mutant, primary screen, teichoic acid synthesis inhibitors, RN4220, OD600 (AID 463173). To be noted: S. aureus RN4220 wild type/DeltatarO growth, OD600, 18 h, hits give low values, screened at 18.75 µg/mL (by protocol).
In the case of `Cc1ccc(-c2nnc3c4ccccc4c(C)nn23)cc1NC(=O)c1ccccc1`, the survival is inactive: 70%. On to `COc1cc(NC(=O)c2nnn(CC(=O)Nc3cc(C)ccc3C)c2N)cc(OC)c1`, for which the survival was inactive: 87%. For `C/C(=N\O)C(=O)C(CN1CCCCC1)CN1CCCCC1`, the survival was inactive: 103%. In the case of `CCOC(=O)CCc1c(C)nc2cc(-c3cc(OC)cc(OC)c3)[nH]n2c1=O`, the survival is inactive: 74%. Turning to `O=C(Nc1ccc(OC(F)(F)F)cc1)c1noc2c1CCCC2`, the survival is inactive: 86%. For the compound `CCn1c(COc2ccccc2)nnc1SCC(=O)CC(=O)Nc1ccccc1OC`, the survival is inactive: 100%.

In the case of `CCOc1cc(C(=O)Nc2ccc3c(c2)n(C)c(=O)c(=O)n3C)cc(OCC)c1OCC`, the survival was inactive: 81%. On to `CCOc1ccc(-n2c(SCC(=O)Nc3ccc(CC)cc3)nc3c(oc4ccccc43)c2=O)cc1`, for which the survival is inactive: 85%. With `COc1cc(NC(=O)c2cc(-c3cccc(OC)c3)n[nH]2)cc(OC)c1`, the survival was inactive: 74%. For `COC(=O)c1ccc(NC(=O)CC2C(=O)N(c3cccc(OC)c3)C(=O)N2C(C)C)cc1` (stereo not given) the value was inactive: 78%; for `O=C(NCCCN1CCN(c2cccc(Cl)c2)CC1)c1cnn(-c2ccc(F)cc2)c1-n1cccc1`, active: 0%. As for `O=C(NCCc1csc2nc(-c3ccccc3F)nn12)C(=O)Nc1cc(F)ccc1F`, the survival is inactive: 63%. `CCOC(=O)c1c(C)oc2ncnc(Nc3cc(C)cc(C)c3)c12`: the survival was inactive: 74%. Turning to `Cc1ccc(N2CC(NC(=O)c3cccc(Cl)c3)CC2=O)cc1C` (stereo not given), the survival is inactive: 78%. The same measure for `COc1ccc(N(C(=O)c2ccc(C(C)(C)C)cc2)S(=O)(=O)c2ccc(Cl)cc2)cc1`: inactive: 77%; for `COc1ccc(CNC(=O)c2cnn3c(C)c(Cc4c(F)cccc4Cl)c(C)nc23)cc1`: inactive: 63%. Consider `CCC1=C(c2ccc(C)cc2)S(=O)(=O)N=C1N1CCC(C(=O)NCc2ccc(N(C)C)cc2)CC1`, for which the survival is inactive: 68%. In the case of `CCN1C(=O)c2ccccc2Sc2ccc(NC(=O)Nc3cccc([N+](=O)[O-])c3C)cc21`, the survival was inactive: 117%. As to `Cc1cccc(N2CCN(C(=O)c3cnc(N4CCCC4)nc3C)CC2)c1C`, the survival was inactive: 72%. Take `COc1ccc(C2c3c(n(C)c4ccccc34)C(=O)N2CC(=O)Nc2cccc(Cl)c2C)cc1` (stereo not given): the survival was inactive: 112%. For the compound `CCCCOc1ccc(C(=O)NCc2nnnn2-c2ccc(C)c(C)c2)cc1`, the survival is inactive: 88%. The same measure for `COC(=O)c1c(NC(=O)/C(C#N)=C/c2ccccc2)sc2c1C(C(=O)OC)CC2` (stereo not given): inactive: 82%; for `CC(=O)Nc1ccc(OC(=O)c2ccco2)cc1`: inactive: 106%; for `CCc1ccccc1Nc1sc(C(=O)c2cccc(OC)c2)c(N)c1S(=O)(=O)c1ccccc1`: inactive: 82%. For `CC1CCCN(C(=O)Cn2ncc3c([nH]c4ccccc43)c2=O)C1` (stereo not given) the value was inactive: 81%. Regarding `CCOC(=O)N1CCc2c(sc3c2c(=O)n(-c2ccc(CC)cc2)c(=O)n3C)C1`, the survival is inactive: 77%. Take `CCc1ccccc1NC(=O)Cn1c(=O)ccc2cc(S(=O)(=O)N3CCCC3)ccc21`: the survival is inactive: 64%. The same measure for `CCCSc1ncc(Cl)c(C(=O)N(Cc2ccc(Cl)cc2)Cc2ccco2)n1`: inactive: 78%.

Regarding `Cc1ccccc1OCC(=O)N1CCC(c2nc3ccccc3s2)CC1`, the survival was inactive: 65%. The same measure for `COc1ccc(OCc2ccc(-c3nc(C#N)c(N4CCCCC4)o3)o2)cc1`: inactive: 72%; for `Cc1ccc(NC(=O)Cn2nc(N3CCN(c4ccccc4)CC3)ccc2=O)cc1F`: inactive: 84%; for `COc1ccc(-n2c(=O)c3sc4ccccc4c3n(Cc3ccccc3C)c2=O)cc1OC`: inactive: 89%.

`COc1ccc(C(=O)c2c(N)c(C(=O)Nc3cccc(OC)c3)c3ccccn23)cc1`: the survival was inactive: 95%. As for `Cc1c(C(=O)N(C)C)sc2c1c(=O)n(-c1ccc(Cl)cc1)c(=O)n2CC(=O)C(C)(C)C`, the survival is inactive: 75%. The same measure for `CCC(C(=O)O)n1ccc2cc(S(=O)(=O)N3CCCCC3)ccc21` (stereo not given): inactive: 69%. The same measure for `CCC1CCCCN1S(=O)(=O)c1cc2c3c(c1)CC(=O)N3CCC2` (stereo not given): inactive: 95%; for `COc1ccc(S(=O)(=O)N2Cc3ccccc3CC2C(=O)Nc2ccc(C)cc2C)cc1OC` (stereo not given): inactive: 72%.

Take `CCOC(=O)c1c(C)[nH]c(C)c1S(=O)(=O)N1CCC(C(=O)NCc2cccc(OC)c2)CC1`: the survival is inactive: 63%.

Take `CC(=O)c1ccc(NC(=O)CCc2c(C)nn(-c3ccc(N4CCOCC4)nn3)c2C)cc1`: the survival is inactive: 80%. Turning to `Cc1cc(C)c(S(=O)(=O)NCCc2cc3ccc(C)c(C)c3[nH]c2=O)c(C)c1`, the survival is inactive: 74%. Regarding `O=c1c2sc3ccccc3c2n(Cc2cccc(Cl)c2)c(=O)n1Cc1ccco1`, the survival is inactive: 68%.

As for `Cc1ccc(N2CCN(C(=O)C3CCN(S(=O)(=O)c4ccc5c(c4)oc(=O)n5C)CC3)CC2C)cc1` (stereo not given), the survival is inactive: 134%. `CCOc1ccccc1NC(=O)c1cnccn1`: the survival is inactive: 104%. On to `Cc1cc(NC(=O)c2cc(-c3cccc(Cl)c3)on2)n(-c2ccccc2)n1`, for which the survival is inactive: 127%. Turning to `Cc1ccccc1OCCn1c(=N)n(C(C)C)c2ccccc21`, the survival is inactive: 66%. In the case of `Cc1cc(C)cc(-n2c(C)nc3cc(C(=O)O)ccc32)c1`, the survival is inactive: 69%. On to `CCOc1ccc(C2=CC(c3cccc(Br)c3)n3c(nc4ccccc43)N2)cc1Cl` (stereo not given), for which the survival was inactive: 129%. Turning to `COc1ccc(-c2noc(-c3ccc(NCc4cccnc4)c([N+](=O)[O-])c3)n2)cc1OC`, the survival was inactive: 122%. With `Cc1cccc(OCc2nc(CC(=O)Nc3ccc(C)c(C)c3)cs2)c1`, the survival was inactive: 91%.

Turning to `CCCn1c(CN2CCN(c3ccc(OC)cc3)CC2)nc2c1c(=O)[nH]c(=O)n2C`, the survival is inactive: 87%. Take `COc1cc(-c2cc3n(C)c(C)c(CCC(=O)O)c(=O)n3n2)cc(OC)c1OC`: the survival is inactive: 78%. For `C/C=N/N(C)c1cc(=O)n(C)c(=O)[nH]1` the value was inactive: 112%; for `CCOc1ccc(NC(=O)C2CCN(C(=O)N3CC(C)Oc4ccc(Cl)cc43)CC2)cc1` (stereo not given), inactive: 106%; for `Cc1ccc(CNC(=O)CCC(=O)N2CC3CCCN3c3ccccc32)cc1` (stereo not given), inactive: 82%. For `Cc1cc2oc(C(=O)Nc3ccc(S(=O)(=O)N(C)Cc4ccccc4)cc3)cc(=O)c2cc1C`, the survival was inactive: 84%.
